Where “and” joins values, the source holds several entries; their conditions need not be identical. Equal values may be shown once. Out of some 410,000 compounds screened, about 5,000 (1.2%) were called active. Inconclusive results, whose numbers are uncertain, are shown with a selection of clear calls. Calls come from the whole dose curve; as a rule, active = well fitted inhibition curve with a large enough effect; inconclusive = small, poorly fitted or top-dose-only effect; inactive = no such curve, though single readings can be large or run the other way. Potencies beside an inconclusive call are fits to weak or partial responses and may not hold up.
Experiment: qHTS for Inhibitors of TGF-b; note: nearly all actives have a fitted effect of over 65% in size
Settings: HepG2 CAGA-GFP TGF-b/SMAD3 reporter, GFP fluorescence, 18 h, TGF-beta stimulated, 500 pg/mL final; series mostly up to 46.1 µM
Summary of the method: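 GFP signal (ex488/em500-530) from TGF-beta-stimulated HEPG2 CAGA-GFP cells, 500 pg/mL final, 18 h at 37 degrees C in DMEM plus 1% FBS, normalized to unstimulated and DMSO-stimulated controls.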
In the case of `Clc1cccc(NCc2nnc(SCc3ccc(Cl)cc3Cl)o2)c1`, the Potency is reported as inconclusive: 35.5 µM [inhibitor, single point].
With `CCOc1ccc2nc(NCCCNS(=O)(=O)c3ccc(F)cc3)c(C#N)cc2c1` the Potency was “inactive”.
For `O=C(NCC1CCCCC1)C1(CC2CC(c3ccc(Cl)cc3)=NO2)CCNCC1` (centres undefined), the Potency was inconclusive: 35.5 µM [inhibitor, partial curve, poor fit].
With `CN1C(=O)C(C)(C)c2cc(S(=O)(=O)N3CCN(c4ccccc4)CC3)ccc21` the Potency was “inactive”.
With `COc1ccc([C@H]2/C=C\CN(S(=O)(=O)c3ccc(C)cc3)[C@@H](C)C(=O)N2Cc2ccc(F)cc2)cc1` the Potency was inconclusive: 5.62 µM [inhibitor, single point].
For `CN(C(=O)c1cc2c(s1)-c1ccccc1S(=O)(=O)C2)c1ccccc1F`, the Potency was inconclusive: 35.5 µM [inhibitor, single point].
With `CC1=C(C(=O)N(C(C)C)C(C)C)CC(CC(=O)NCCN2CCOCC2)C(=O)N1Cc1ccc(C(C)(C)C)cc1` (centres undefined) the Potency was inconclusive: 11.2 µM [inhibitor, partial curve].
For `Cc1nc(CS(=O)c2ccc(Cl)cc2)cc(NCc2ccc(Cl)cc2Cl)n1` (centres undefined), the Potency was inconclusive: 14.1 µM [inhibitor, single point].
In the case of `CCOC(=O)N1C2=NC(C(=O)OC)=C(C(=O)OC)[C@@H]3N(C)c4ccccc4[C@]23C[C@H]1C(=O)OC`, the Potency is reported as “inactive”.
For `CC(C)NC(=O)COC(=O)/C=C/c1ccc(F)cc1`, the Potency was inconclusive: 35.5 µM [inhibitor, single point].
For `CC1(OC(=O)C2CCCC2)C(=O)C=C2C=C(c3ccsc3)N(CC3CC3)C=C2C1=O` (centres undefined), the Potency was inconclusive: 14.1 µM [inhibitor, single point].
With `CCCOc1ccc(F)cc1-c1cc(C(=O)Nc2ccc(C(C)C)cc2)[nH]n1` the Potency was inconclusive: 35.5 µM [inhibitor, single point].
For `Cc1nc2ccc(NC(=O)c3ccc(Br)o3)cc2s1`, the Potency was inconclusive: 22.4 µM [inhibitor, single point].
With `CCc1cccc(C)c1NS(=O)(=O)c1ccc(-n2cccn2)cc1` the Potency was inconclusive: 35.5 µM [inhibitor, single point].
For `Oc1cccc(NC(=S)N=Nc2c(O)[nH]c3ccccc23)c1`, the Potency was inconclusive: 11.2 µM [inhibitor, single point].
For `CCOc1ccc(NS(=O)(=O)c2cc(NC(=O)C3CC3)ccc2C)cc1Br`, the Potency was inconclusive: 35.5 µM [inhibitor, single point].
In the case of `O=S1(=O)CCOC[C@H](CC2CCCCC2)N1Cc1cccc(C(F)(F)F)c1`, the Potency is reported as inconclusive: 22.4 µM [inhibitor, single point] and inconclusive: 35.5 µM [inhibitor, single point].
For `O=C(CSc1nnc(-c2ccccn2)o1)Nc1ccccc1Cl`, the Potency was “inactive”.
In the case of `CCOC(=O)c1[nH]c(C)c(C(=O)C(C)C)c1C`, the Potency is reported as “inactive”.
In the case of `CN(C(=O)CCCN1C(=O)c2cccc3cccc(c23)C1=O)c1ccccc1`, the Potency is reported as inconclusive: 6.31 µM [inhibitor, single point].
In the case of `CCc1[nH]nc2c1C(C1C=CCCC1)C(C#N)=C(N)O2` (centres undefined), the Potency is reported as inconclusive: 22.4 µM [inhibitor, single point].
For `COc1ccc2c(-c3ccccc3)cc(SCC(=O)N(C)C3CCS(=O)(=O)C3)nc2c1` (centres undefined), the Potency was inconclusive: 35.5 µM [inhibitor, single point].
For `CC(CN1CCOCC1)(NS(=O)(=O)c1ccccc1)c1ccccc1` (centres undefined), the Potency was inconclusive: 0.178 µM [inhibitor, full curve, poor fit].
In the case of `C[C@]12c3[nH]c4ccccc4c3CCN1C(=O)C(CC(=O)NCCN1CCOCC1)C[C@@H]2C(=O)N1CCCCC1` (some centres undefined), the Potency is reported as “inactive”.
For `COc1ccc(CCNC(=O)CNC(=O)Cn2ccc3ccccc3c2=O)cc1OC`, the Potency was “inactive”.
With `COc1ccc(C(=O)CCN2CCC(C)CC2)cc1` the Potency was inconclusive: 25.1 µM [inhibitor, single point].
With `CC(=O)n1cc([C@H]2C=C(C(=O)Nc3ccccc3)O[C@@H](OCCCCO)C2)c2ccccc21` the Potency was inconclusive: 5.62 µM [inhibitor, single point].
For `CCOC(=O)c1cccc(NC(=O)CCc2nc(-c3ccc(C)cc3)no2)c1`, the Potency was inconclusive: 35.5 µM [inhibitor, single point].
With `CCOC(=O)c1c2c(n(-c3ccc(OC)cc3)c1C)C(=O)C(=O)c1ccccc1-2` the Potency was inconclusive: 2.24 µM [inhibitor, partial curve, poor fit].
For `COCC(C)NC(=O)c1ccccc1OC(C)=O` (centres undefined), the Potency was “inactive”.
With `Cc1ccc2cc(CN(Cc3cccs3)Cc3nnnn3CC3CCCO3)c(=O)[nH]c2c1` (centres undefined) the Potency was “inactive”.
With `CCC(=O)Nc1ccc(C)cc1-c1nc2ccccc2n(Cc2ccccc2)c1=O` the Potency was “inactive”.
For `Cc1oc(-c2cccc(Cl)c2)nc1CSCC(=O)O`, the Potency was “inactive”.
With `Cn1c(-c2ccccc2)cnc1SCC(=O)N1CCCCC1` the Potency was inconclusive: 35.5 µM [inhibitor, single point].
For `Cc1cccc(Cn2c(NCC(C)O)nc3c2c(=O)n(C)c(=O)n3C)c1` (centres undefined), the Potency was “inactive”.
For `O=C(Nc1nc(-c2ccc(Cl)s2)cs1)c1ccco1`, the Potency was inconclusive: 25.1 µM [inhibitor, single point].
In the case of `CC(C)(C)C(=O)OCCNc1nc(-c2ccccc2)nc2ccccc12`, the Potency is reported as “inactive”.
For `COc1ccc(Br)c(C(=O)OCC(=O)NC2CCCCCCC2)c1`, the Potency was inconclusive: 35.5 µM [inhibitor, single point].
In the case of `O=S(=O)(Nc1ccc(C(O)(C(F)(F)F)C(F)(F)F)cc1)c1cccc2cccnc12`, the Potency is reported as active: 17.8 µM.
With `CCCOC(=O)c1cccc(NC(=O)c2cccnc2)c1` the Potency was “inactive”.
With `O=C(COC(=O)c1ccc(O)cc1)Nc1cc(C(F)(F)F)ccc1N1CCOCC1` the Potency was “inactive”.
In the case of `Cc1cc(NC(=O)c2ccc(F)cc2)ccc1NC(=O)c1ccco1`, the Potency is reported as inconclusive: 3.55 µM [inhibitor, single point].
For `Cc1cccc2cc(CN(CCN(C)C)C(=S)NCc3ccco3)c(=O)[nH]c12`, the Potency was inconclusive: 35.5 µM [inhibitor, single point].
In the case of `COc1cc(C2CC(=O)Nc3cc4c(cc32)OCCO4)cc(OC)c1O` (centres undefined), the Potency is reported as inconclusive: 0.447 µM [inhibitor, full curve, poor fit].
For `Cc1ccc(-c2n[nH]c(=S)n2/N=C/c2c(C)nn(-c3ccccc3)c2C)cc1`, the Potency was “inactive”.
For `CCC(CO)Oc1cc(NCc2cccc(C(F)(F)F)c2)c2ncn(C(C)C)c2c1` (centres undefined), the Potency was inconclusive: 20 µM [inhibitor, single point].
For `COc1ccc(CN2C(=O)c3ccccc3C(/C=N/OCc3ccc(Cl)cc3)C2=O)cc1` (centres undefined), the Potency was inconclusive: 35.5 µM [inhibitor, single point].
For `Cc1ccc(-c2nn(-c3ccccc3)cc2/C=N/n2c(-c3cccs3)n[nH]c2=S)cc1`, the Potency was inconclusive: 35.5 µM [inhibitor, single point].
For `N#Cc1ccc2c(c1)nnn2-c1ccccc1`, the Potency was “inactive”.
In the case of `Clc1cccc(-c2ccc(-c3nc4ccccn4c3NCc3ccccc3)cc2)c1`, the Potency is reported as inconclusive: 20 µM [inhibitor, partial curve, poor fit].
With `COc1ccccc1CNC(=O)C(C)n1c(=O)cc(C(F)(F)F)c2c(C)nn(C)c21` (centres undefined) the Potency was inconclusive: 35.5 µM [inhibitor, single point].
In the case of `O=C(c1ccccc1)c1ccc(C(=O)N2CCOCC2)cc1`, the Potency is reported as “inactive”.
In the case of `Cc1cc(-c2ccccc2)nc(N/N=C/c2ccc(O)cc2O)n1`, the Potency is reported as inconclusive: 35.5 µM [inhibitor, single point].
With `c1coc(CNc2nc(NCc3ccco3)c3ccccc3n2)c1` the Potency was active: 0.708 µM.
With `CCN(CC)CCNC(=O)Cn1cnc2sc(C)c(S(=O)(=O)N3CCN(c4ncccn4)CC3)c2c1=O` the Potency was “inactive”.
For `COc1ccc(N2CCN(c3oc(/C=C/c4cccc(OC)c4)nc3C#N)CC2)cc1`, the Potency was “inactive”.
With `CCOc1ccccc1/C=N/n1nnnc1N` the Potency was “inactive”.
For `C/C(=N/Nc1nc(C)c(C)s1)c1cccc([N+](=O)[O-])c1`, the Potency was inconclusive: 10 µM [inhibitor, single point].
For `CC(C)(C)n1cnnc1Sc1ccc([N+](=O)[O-])cn1`, the Potency was inconclusive: 35.5 µM [inhibitor, single point].
For `O=C(NCC(=O)N1CCN(c2ccccc2O)CC1)c1ccco1`, the Potency was “inactive”.
In the case of `COc1cccc(CN(C)Cc2nc(Cc3ccccc3Cl)no2)c1`, the Potency is reported as inconclusive: 0.562 µM [inhibitor, partial curve, poor fit].
For `Cc1cccc(NC(=O)Cn2nc(-c3cccs3)ccc2=O)c1C`, the Potency was “inactive”.
In the case of `COc1ccc(NC(C)=O)cc1S(=O)(=O)Nc1ccccc1C(=O)NCCc1ccccc1`, the Potency is reported as inconclusive: 5.62 µM [inhibitor, single point].
For `O=C(Nc1nc(=O)n(C(=O)C2CC2)s1)c1ccccc1`, the Potency was inconclusive: 15.8 µM [inhibitor, single point].
With `COc1ccc(NC(=O)Nc2nc(C(N)Cc3ccc(C(F)(F)F)cc3)cs2)cc1` (centres undefined) the Potency was active: 11.2 µM.
In the case of `COC(=O)c1cc(CSc2nnc(-c3ccccc3)c(-c3ccccc3)n2)oc1C`, the Potency is reported as inconclusive: 14.1 µM [inhibitor, single point].
With `CCOC(=O)C(=Cc1c[nH]c2ccc(S(=O)(=O)N(C)C)cc12)C(=O)OCC` the Potency was inconclusive: 20 µM [inhibitor, partial curve, poor fit].
With `O=C1CCCC(O)=C1N=Nc1c(Cl)cc(Cl)cc1Cl` the Potency was inconclusive: 0.112 µM [inhibitor, full curve, poor fit].
With `CCCC(=O)Nc1ccccc1-c1nnn(CC(=O)Nc2ccc(OCC)cc2)n1` the Potency was “inactive”.
Potency is the fitted concentration of half-maximal effect; tags give direction and shape of the fitted curve.
